{"source": "the supplement of paper PMC8728848", "binders": {"B1": {"name": "FBG3 (Homo sapiens), Q9H4M3 (protein)", "chain": "MAVGNINELPENILLELFTHVPARQLLLNCRLVCSLWRDLIDLVTLWKRKCLREGFITEDWDQPVADWKIFYFLRSLHRNLLHNPCAEEGFEFWSLDVNGGDEWKVEDLSRDQRKEFPNDQVKKYFVTSYYTCLKSQVVDLKAEGYWEELMDTTRPDIEVKDWFAARPDCGSKYQLCVQLLSSAHAPLGTFQPDPATIQQKSDAKWREVSHTFSNYPPGVRYIWFQHGGVDTHYWAGWYGPRVTNSSITIGPPLP"}}, "experiment_in_all_cases": "glycan array binding signal (z-score within array); higher = stronger binding", "conditions_in_all_cases": "glycan notation: IUPAC condensed, linker removed", "key": {"[1]": {"biological_target": "Fuc(a1-2)Gal", "summary_of_the_method": "(§1)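 Negative Z-scores can be read as non-binding. The Z-score is calculated within each array and then averaged across arrays of one protein sequence at different concentrations or buffers and across linkers. Arrays, 3228 in all, were curated from the Consortium for Functional Glycomics database and kept only where the protein sequence was available.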"}, "[2]": {"biological_target": "Fuc(a1-2)Gal(b1-3)GalNAc", "summary_of_the_method": "as §1"}, "[3]": {"biological_target": "Fuc(a1-2)Gal(b1-3)GalNAc(b1-3)Gal", "summary_of_the_method": "as §1"}, "[4]": {"biological_target": "Fuc(a1-2)Gal(b1-3)GalNAc(b1-3)Gal(a1-4)Gal(b1-4)Glc", "summary_of_the_method": "as §1"}, "[5]": {"biological_target": "Fuc(a1-2)Gal(b1-3)GalNAc(b1-3)Gal(b1-4)Glc", "summary_of_the_method": "as §1"}, "[6]": {"biological_target": "Fuc(a1-2)Gal(b1-3)GalNAc(b1-4)[Neu5Ac(a2-3)]Gal(b1-4)Glc", "summary_of_the_method": "as §1"}, "[7]": {"biological_target": "Fuc(a1-2)Gal(b1-3)GlcNAc", "summary_of_the_method": "as §1"}, "[8]": {"biological_target": "Fuc(a1-2)Gal(b1-3)[Fuc(a1-4)]GlcNAc", "summary_of_the_method": "as §1"}, "[9]": {"biological_target": "Fuc(a1-2)Gal(b1-4)Glc", "summary_of_the_method": "as §1"}, "[10]": {"biological_target": "Fuc(a1-2)Gal(b1-4)Glc6S", "summary_of_the_method": "as §1"}, "[11]": {"biological_target": "Fuc(a1-2)Gal(b1-4)GlcNAc", "summary_of_the_method": "as §1"}, "[12]": {"biological_target": "Fuc(a1-2)Gal(b1-4)GlcNAc(b1-3)Gal(b1-4)GlcNAc", "summary_of_the_method": "as §1"}, "[13]": {"biological_target": "Fuc(a1-2)Gal(b1-4)GlcNAc(b1-3)Gal(b1-4)GlcNAc(b1-3)Gal(b1-4)GlcNAc", "summary_of_the_method": "as §1"}, "[14]": {"biological_target": "Fuc(a1-2)Gal(b1-4)GlcNAc6S", "summary_of_the_method": "as §1"}, "[15]": {"biological_target": "Fuc(a1-2)Gal(b1-4)[Fuc(a1-3)]GalNAc(b1-3)Gal(b1-4)[Fuc(a1-3)]GlcNAc", "summary_of_the_method": "as §1"}, "[16]": {"biological_target": "Fuc(a1-2)Gal(b1-4)[Fuc(a1-3)]GalNAc(b1-3)Gal(b1-4)[Fuc(a1-3)]GlcNAc(b1-3)Gal(b1-4)[Fuc(a1-3)]GalNAc", "summary_of_the_method": "as §1"}, "[17]": {"biological_target": "Fuc(a1-2)Gal(b1-4)[Fuc(a1-3)]GlcNAc", "summary_of_the_method": "as §1"}, "[18]": {"biological_target": "Fuc(a1-2)Gal6S(b1-4)Glc", "summary_of_the_method": "as §1"}, "[19]": {"biological_target": "Fuc(a1-2)Gal6S(b1-4)Glc6S", "summary_of_the_method": "as §1"}, "[20]": {"biological_target": "Fuc(a1-2)Gal6S(b1-4)GlcNAc", "summary_of_the_method": "as §1"}, "[21]": {"biological_target": "Fuc(a1-2)GlcNAc", "summary_of_the_method": "as §1"}, "[22]": {"biological_target": "Fuc(a1-2)[Gal(a1-3)]Gal", "summary_of_the_method": "as §1"}, "[23]": {"biological_target": "Fuc(a1-2)[Gal(a1-3)]Gal(b1-3)GlcNAc", "summary_of_the_method": "as §1"}, "[24]": {"biological_target": "Fuc(a1-2)[Gal(a1-3)]Gal(b1-4)Glc", "summary_of_the_method": "as §1"}, "[25]": {"biological_target": "Fuc(a1-2)[Gal(a1-3)]Gal(b1-4)GlcNAc", "summary_of_the_method": "as §1"}, "[26]": {"biological_target": "Fuc(a1-2)[Gal(a1-3)]Gal(b1-4)[Fuc(a1-3)]GlcNAc", "summary_of_the_method": "as §1"}, "[27]": {"biological_target": "Fuc(a1-2)[Gal(a1-4)]Gal(b1-4)GalNAc", "summary_of_the_method": "as §1"}, "[28]": {"biological_target": "Fuc(a1-2)[Gal(a1-4)]Gal(b1-4)GlcNAc", "summary_of_the_method": "as §1"}, "[29]": {"biological_target": "Fuc(a1-2)[GalNAc(a1-3)]Gal", "summary_of_the_method": "as §1"}, "[30]": {"biological_target": "Fuc(a1-2)[GalNAc(a1-3)]Gal(b1-3)GlcNAc", "summary_of_the_method": "as §1"}}, "note": "The other results are listed elsewhere or left out.", "data": [{"binder": "B1", "values": [{"measurement": "glycan array binding signal (z-score)", "setting": "[1]", "result": 0.149}, {"measurement": "glycan array binding signal (z-score)", "setting": "[2]", "result": -0.019}, {"measurement": "glycan array binding signal (z-score)", "setting": "[3]", "result": 0.169}, {"measurement": "glycan array binding signal (z-score)", "setting": "[4]", "result": -0.179}, {"measurement": "glycan array binding signal (z-score)", "setting": "[5]", "result": -0.294}, {"measurement": "glycan array binding signal (z-score)", "setting": "[6]", "result": -0.235}, {"measurement": "glycan array binding signal (z-score)", "setting": "[7]", "result": 0.171}, {"measurement": "glycan array binding signal (z-score)", "setting": "[8]", "result": -0.425}, {"measurement": "glycan array binding signal (z-score)", "setting": "[9]", "result": -0.166}, {"measurement": "glycan array binding signal (z-score)", "setting": "[10]", "result": 0.769}, {"measurement": "glycan array binding signal (z-score)", "setting": "[11]", "result": -0.301}, {"measurement": "glycan array binding signal (z-score)", "setting": "[12]", "result": -0.582}, {"measurement": "glycan array binding signal (z-score)", "setting": "[13]", "result": -0.354}, {"measurement": "glycan array binding signal (z-score)", "setting": "[14]", "result": 0.121}, {"measurement": "glycan array binding signal (z-score)", "setting": "[15]", "result": 0.13}, {"measurement": "glycan array binding signal (z-score)", "setting": "[16]", "result": 0.779}, {"measurement": "glycan array binding signal (z-score)", "setting": "[17]", "result": -0.293}, {"measurement": "glycan array binding signal (z-score)", "setting": "[18]", "result": -0.445}, {"measurement": "glycan array binding signal (z-score)", "setting": "[19]", "result": 0.707}, {"measurement": "glycan array binding signal (z-score)", "setting": "[20]", "result": -0.284}, {"measurement": "glycan array binding signal (z-score)", "setting": "[21]", "result": -0.096}, {"measurement": "glycan array binding signal (z-score)", "setting": "[22]", "result": -0.078}, {"measurement": "glycan array binding signal (z-score)", "setting": "[23]", "result": 0.051}, {"measurement": "glycan array binding signal (z-score)", "setting": "[24]", "result": -0.093}, {"measurement": "glycan array binding signal (z-score)", "setting": "[25]", "result": -0.057}, {"measurement": "glycan array binding signal (z-score)", "setting": "[26]", "result": 0.034}, {"measurement": "glycan array binding signal (z-score)", "setting": "[27]", "result": -0.342}, {"measurement": "glycan array binding signal (z-score)", "setting": "[28]", "result": -0.72}, {"measurement": "glycan array binding signal (z-score)", "setting": "[29]", "result": -0.31}, {"measurement": "glycan array binding signal (z-score)", "setting": "[30]", "result": 0.389}]}]}
